Assay results published in the antibiotic and cytotoxicity screens of Wong et al. (2023).
This is one part of the list.

Assays:
[1] = system: HSkMC (human skeletal muscle cells); assay: cytotoxicity call (relative viability < 0.9); details: 10 µM
[2] = system: HepG2; assay: cytotoxicity call (relative viability < 0.9); details: 10 µM
[3] = system: S. aureus RN4220; assay: growth inhibition call (relative growth <= 0.2); details: 50 µM

**Q.** With `Cc1noc(C)c1S(=O)(=O)N(C)C[C@@H]1OCCCC[C@@H](C)Oc2ccc(NC(=O)Nc3cccc4ccccc34)cc2C(=O)N([C@H](C)CO)C[C@@H]1C` as the molecule, how does the cytotoxicity call [1] read?
**A.** Its cytotoxicity call is “inactive”.

**Q.** What about the cytotoxicity call [2] of the same molecule?
**A.** The cytotoxicity call was “inactive”.

**Q.** And the growth inhibition call [3]?
**A.** Its growth inhibition call is “inactive”.

**Q.** What does the source list for `C[C@@H]1CCCCO[C@@H](CN(C)C(=O)Nc2ccc3c(c2)OCO3)[C@H](C)CN([C@H](C)CO)C(=O)c2cc(NC(=O)NC3CCCCC3)ccc2O1`?
**A.** cytotoxicity call [1]: inactive; cytotoxicity call [2]: inactive; growth inhibition call [3]: inactive

**Q.** For `C[C@@H]1CN([C@@H](C)CO)C(=O)c2cccc(NS(=O)(=O)c3cn(C)cn3)c2O[C@H]1CN(C)C(=O)Nc1ccc2c(c1)OCO2`, which cytotoxicity call [1] is on record?
**A.** The cytotoxicity call was “inactive”.

**Q.** And the cytotoxicity call [2]?
**A.** Its cytotoxicity call is “inactive”.

**Q.** What about the growth inhibition call [3] of the same molecule?
**A.** Its growth inhibition call is “inactive”.

**Q.** Which cytotoxicity call [1] does the source give for `O=C(C[C@@H]1C[C@@H]2c3cc(NS(=O)(=O)c4ccc(F)cc4)ccc3O[C@@H]2[C@@H](CO)O1)NC1CCCC1` here?
**A.** The cytotoxicity call was “inactive”.

**Q.** And the cytotoxicity call [2]?
**A.** The cytotoxicity call was “inactive”.

**Q.** And the growth inhibition call [3]?
**A.** Its growth inhibition call is “inactive”.

**Q.** Which results are given for `C[C@H](CO)N1C[C@H](C)[C@H](CN(C)Cc2ccc3c(c2)OCO3)OCCCC[C@H](C)Oc2ccc(NC(=O)Nc3ccccc3)cc2C1=O`?
**A.** cytotoxicity call [1]: inactive; cytotoxicity call [2]: active; growth inhibition call [3]: inactive

**Q.** Which cytotoxicity call [1] does the source give for `CCCCCCCCNC(C)C(O)c1ccc(SC(C)C)cc1` (stereo unspecified) here?
**A.** The cytotoxicity call was “active”.

**Q.** What about the cytotoxicity call [2] of the same molecule?
**A.** Its cytotoxicity call is “active”.

**Q.** What about the growth inhibition call [3] of the same molecule?
**A.** The growth inhibition call was “inactive”.

**Q.** How did the cytotoxicity call [1] turn out when `C[C@@H]1CN([C@@H](C)CO)C(=O)c2c(c3ccccc3n2C)-c2ccccc2CO[C@@H]1CN(C)S(=O)(=O)c1ccc(C(F)(F)F)cc1` was run?
**A.** The cytotoxicity call was “inactive”.

**Q.** What about the cytotoxicity call [2] of the same molecule?
**A.** The cytotoxicity call was “inactive”.

**Q.** What about the growth inhibition call [3] of the same molecule?
**A.** Its growth inhibition call is “inactive”.

**Q.** How did the cytotoxicity call [1] turn out when `C[C@@H]1CCCCO[C@@H](CN(C)C(=O)Nc2ccccc2)[C@H](C)CN([C@@H](C)CO)C(=O)c2cc(NC(=O)Cc3ccccc3)ccc2O1` was run?
**A.** Its cytotoxicity call is “inactive”.

**Q.** And the cytotoxicity call [2]?
**A.** Its cytotoxicity call is “inactive”.

**Q.** What about the growth inhibition call [3] of the same molecule?
**A.** Its growth inhibition call is “inactive”.

**Q.** How did the cytotoxicity call [1] turn out when `CSCC[C@H](NC(=O)[C@H](CCC(=O)O)NC(=O)[C@H](CCC(=O)O)NC(C)=O)C(=O)N[C@@H](CCC(N)=O)C(=O)N[C@@H](CCCNC(=N)N)C(=O)N[C@@H](CCCNC(=N)N)C(N)=O` was run?
**A.** Its cytotoxicity call is “inactive”.

**Q.** And the cytotoxicity call [2]?
**A.** Its cytotoxicity call is “inactive”.

**Q.** And the growth inhibition call [3]?
**A.** The growth inhibition call was “inactive”.

**Q.** `COCCCNC(=O)[C@@]1(Sc2ccc(C)cc2)CC(=O)N(Cc2ccccc2Cl)[C@@H]1c1ccc(CO)cc1I` was tested. Which cytotoxicity call [1] did it give?
**A.** Its cytotoxicity call is “inactive”.

**Q.** What about the cytotoxicity call [2] of the same molecule?
**A.** The cytotoxicity call was “inactive”.

**Q.** What about the growth inhibition call [3] of the same molecule?
**A.** Its growth inhibition call is “inactive”.

**Q.** For `Cc1noc(N)c1C(=O)O`, which cytotoxicity call [1] is on record?
**A.** The cytotoxicity call was “inactive”.

**Q.** And the cytotoxicity call [2]?
**A.** The cytotoxicity call was “inactive”.

**Q.** And the growth inhibition call [3]?
**A.** The growth inhibition call was “inactive”.

**Q.** How did the cytotoxicity call [1] turn out when `Cc1noc(C)c1S(=O)(=O)N(C)C[C@H]1Oc2ccc(NC(=O)Cc3cn(C)c4ccccc34)cc2CC(=O)N([C@H](C)CO)C[C@@H]1C` was run?
**A.** The cytotoxicity call was “inactive”.

**Q.** What about the cytotoxicity call [2] of the same molecule?
**A.** The cytotoxicity call was “inactive”.

**Q.** And the growth inhibition call [3]?
**A.** The growth inhibition call was “inactive”.

**Q.** How did the cytotoxicity call [1] turn out when `COc1ccc(NC(=O)N(C)C[C@H]2Oc3ccc(NC(=O)C4CC4)cc3CC(=O)N([C@H](C)CO)C[C@H]2C)cc1` was run?
**A.** Its cytotoxicity call is “inactive”.

**Q.** What about the cytotoxicity call [2] of the same molecule?
**A.** Its cytotoxicity call is “inactive”.

**Q.** And the growth inhibition call [3]?
**A.** The growth inhibition call was “inactive”.

**Q.** Which results are given for `COc1ccc2c3c([nH]c2c1)[C@@H](CO)N(C[C@]13CCN(CC1)C(=O)Nc1cccc(c1)F)C(=O)c1ccccc1`?
**A.** cytotoxicity call [1]: inactive; cytotoxicity call [2]: inactive; growth inhibition call [3]: inactive

**Q.** How did the cytotoxicity call [1] turn out when `COc1ccc(/C=C/C(=O)O[C@@H]2[C@@H](O)[C@H](C)O[C@@H](O[C@H]3[C@@H]4C=CO[C@@H](O[C@H]5O[C@@H](CO)[C@H](O)[C@@H](O)[C@@H]5O)[C@@H]4[C@@]4(CO)O[C@@H]34)[C@@H]2OC(C)=O)cc1` was run?
**A.** The cytotoxicity call was “inactive”.

**Q.** What about the cytotoxicity call [2] of the same molecule?
**A.** The cytotoxicity call was “inactive”.

**Q.** What about the growth inhibition call [3] of the same molecule?
**A.** Its growth inhibition call is “inactive”.

**Q.** Which results are given for `C[C@@H]1CN([C@@H](C)CO)C(=O)c2cc(NC(=O)Nc3ccc(C(F)(F)F)cc3)ccc2O[C@@H]1CN(C)Cc1ccc2c(c1)OCO2`?
**A.** cytotoxicity call [1]: active; cytotoxicity call [2]: active; growth inhibition call [3]: inactive

**Q.** `CC(C)NC(=O)Nc1ccc2c(c1)C(=O)N([C@@H](C)CO)C[C@@H](C)[C@H](CN(C)Cc1ccc(C(F)(F)F)cc1)OCCCC[C@H](C)O2` was tested. Which cytotoxicity call [1] did it give?
**A.** The cytotoxicity call was “inactive”.

**Q.** What about the cytotoxicity call [2] of the same molecule?
**A.** Its cytotoxicity call is “inactive”.

**Q.** And the growth inhibition call [3]?
**A.** The growth inhibition call was “inactive”.

**Q.** How did the cytotoxicity call [1] turn out when `C[C@H]1CN([C@@H](C)CO)S(=O)(=O)c2ccc(-c3cccnc3)cc2O[C@H]1CN(C)C(=O)NC1CCCC1` was run?
**A.** The cytotoxicity call was “inactive”.

**Q.** What about the cytotoxicity call [2] of the same molecule?
**A.** Its cytotoxicity call is “inactive”.

**Q.** What about the growth inhibition call [3] of the same molecule?
**A.** The growth inhibition call was “inactive”.

**Q.** Which results are given for `COc1ccc(cc1)NC(=O)N1CC[C@]2(CC1)CN([C@H](CO)c1[nH]c3cc(ccc3c12)OC)C(=O)CN1CCOCC1`?
**A.** cytotoxicity call [1]: inactive; cytotoxicity call [2]: inactive; growth inhibition call [3]: inactive

**Q.** Which results are given for `O=C(Nc1ccc(C(F)(F)F)cc1)Nc1ccc2c(c1)[C@H]1C[C@@H](CC(=O)N3CCc4ccccc4C3)O[C@H](CO)[C@H]1O2`?
**A.** cytotoxicity call [1]: inactive; cytotoxicity call [2]: active; growth inhibition call [3]: inactive

**Q.** Which results are given for `O=C(CN1CCOCC1)N[C@@H]1CC[C@@H](CCNC(=O)C2CCC2)O[C@H]1CO`?
**A.** cytotoxicity call [1]: inactive; cytotoxicity call [2]: inactive; growth inhibition call [3]: inactive

**Q.** For `C[C@H](CO)N1C[C@H](C)[C@@H](CN(C)Cc2ccc(C(=O)O)cc2)Oc2c(NS(C)(=O)=O)cccc2C1=O`, which cytotoxicity call [1] is on record?
**A.** Its cytotoxicity call is “inactive”.

**Q.** What about the cytotoxicity call [2] of the same molecule?
**A.** Its cytotoxicity call is “inactive”.

**Q.** What about the growth inhibition call [3] of the same molecule?
**A.** Its growth inhibition call is “inactive”.

**Q.** What does the source list for `CC(C)NC(=O)N(C)C[C@@H]1Oc2c(NC(=O)Nc3ccc4c(c3)OCO4)cccc2C(=O)N([C@H](C)CO)C[C@H]1C`?
**A.** cytotoxicity call [1]: inactive; cytotoxicity call [2]: inactive; growth inhibition call [3]: inactive

**Q.** With `CN1C=C(C(=O)OCCS(C)(=O)=O)C(C(=O)OCCS(C)(=O)=O)=CC(c2ccc(CO)cc2)=C[C@@H]1C1CC1` as the molecule, how does the cytotoxicity call [1] read?
**A.** Its cytotoxicity call is “inactive”.

**Q.** And the cytotoxicity call [2]?
**A.** The cytotoxicity call was “inactive”.

**Q.** And the growth inhibition call [3]?
**A.** Its growth inhibition call is “inactive”.

**Q.** How did the cytotoxicity call [1] turn out when `CO[C@@H](C)n1cc(Br)c(=O)[nH]c1=O` was run?
**A.** The cytotoxicity call was “inactive”.

**Q.** What about the cytotoxicity call [2] of the same molecule?
**A.** The cytotoxicity call was “inactive”.

**Q.** What about the growth inhibition call [3] of the same molecule?
**A.** The growth inhibition call was “inactive”.

**Q.** Which cytotoxicity call [1] does the source give for `Cc1ccc(S(=O)(=O)N(C)C[C@@H]2OCCCC[C@H](C)Oc3ccc(NS(C)(=O)=O)cc3C(=O)N([C@H](C)CO)C[C@H]2C)cc1` here?
**A.** The cytotoxicity call was “inactive”.

**Q.** And the cytotoxicity call [2]?
**A.** Its cytotoxicity call is “inactive”.

**Q.** What about the growth inhibition call [3] of the same molecule?
**A.** Its growth inhibition call is “inactive”.

**Q.** Which cytotoxicity call [1] does the source give for `Cc1ccc(S(=O)(=O)N(C)C[C@@H]2Oc3ccc(NS(=O)(=O)c4c(C)noc4C)cc3CC(=O)N([C@H](C)CO)C[C@H]2C)cc1` here?
**A.** Its cytotoxicity call is “inactive”.

**Q.** And the cytotoxicity call [2]?
**A.** Its cytotoxicity call is “inactive”.

**Q.** And the growth inhibition call [3]?
**A.** The growth inhibition call was “inactive”.
